Reference: paper PMC4336329 (PLoS ONE, 2015)
About 2,200 (0.71%) of roughly 310,000 compounds showed an effect of 50% or more. Effects have a minus sign here. Some of the results follow.

The molecules below were run against human ether-à-go-go-related gene (hERG) potassium channel (human, UniProt Q12809) (assay: primary screen, population patch clamp on CHO cells stably expressing hERG).
Sequence of human ether-à-go-go-related gene (hERG) potassium channel (Q12809 whole entry, looked up): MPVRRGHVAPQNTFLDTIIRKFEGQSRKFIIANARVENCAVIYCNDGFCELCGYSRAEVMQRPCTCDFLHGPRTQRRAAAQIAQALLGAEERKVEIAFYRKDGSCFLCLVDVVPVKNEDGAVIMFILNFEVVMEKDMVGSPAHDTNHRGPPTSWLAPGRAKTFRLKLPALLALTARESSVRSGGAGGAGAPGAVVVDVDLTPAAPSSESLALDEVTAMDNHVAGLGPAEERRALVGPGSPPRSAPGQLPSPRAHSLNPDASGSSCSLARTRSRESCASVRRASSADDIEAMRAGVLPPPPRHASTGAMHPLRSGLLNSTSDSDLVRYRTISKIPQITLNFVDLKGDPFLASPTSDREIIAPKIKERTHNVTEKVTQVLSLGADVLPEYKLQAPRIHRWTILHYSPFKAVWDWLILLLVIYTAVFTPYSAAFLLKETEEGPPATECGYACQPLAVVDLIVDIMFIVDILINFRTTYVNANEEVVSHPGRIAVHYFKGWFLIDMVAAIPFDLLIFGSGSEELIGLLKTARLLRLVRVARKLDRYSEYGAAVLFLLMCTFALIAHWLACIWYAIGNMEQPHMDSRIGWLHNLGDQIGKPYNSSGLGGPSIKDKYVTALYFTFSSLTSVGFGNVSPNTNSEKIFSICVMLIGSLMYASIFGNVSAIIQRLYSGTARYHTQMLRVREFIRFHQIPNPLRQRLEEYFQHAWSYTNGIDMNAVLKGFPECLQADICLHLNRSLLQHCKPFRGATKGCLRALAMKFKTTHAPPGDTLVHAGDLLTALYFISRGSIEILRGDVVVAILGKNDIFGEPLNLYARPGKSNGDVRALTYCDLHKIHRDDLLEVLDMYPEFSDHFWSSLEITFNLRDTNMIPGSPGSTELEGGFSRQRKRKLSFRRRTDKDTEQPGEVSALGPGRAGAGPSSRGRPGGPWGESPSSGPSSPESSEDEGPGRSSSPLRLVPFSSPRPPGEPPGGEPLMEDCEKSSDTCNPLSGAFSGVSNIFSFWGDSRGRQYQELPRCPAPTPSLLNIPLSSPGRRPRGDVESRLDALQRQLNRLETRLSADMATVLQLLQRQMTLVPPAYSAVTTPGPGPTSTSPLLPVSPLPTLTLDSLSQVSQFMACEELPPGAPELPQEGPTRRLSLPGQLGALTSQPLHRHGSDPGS

Row | SMILES | hERG current change (%, negative = inhibition) at 1uM
1 | COc1ccc(F)cc1C(=O)C1CCCN(C(=O)c2ccc(C(C)=O)s2)C1 (stereo not drawn) | 10.1%
2 | COc1c(Cl)cnn(-c2ccc(Cl)c(Cl)c2)c1=O | 12.8%
3 | CSc1nc2c(c(=O)n1-c1ccc(F)cc1)SCC2 | 11.4%
4 | O=C(O)C1CC=C(Cl)CC1C(=O)NC1CCCCC1 (stereo not drawn) | 14.5%
5 | CNC(=O)[C@@]1(Cc2ccccc2)C=C[C@@H](C)N1C(C)=O | 6.62%
6 | Cc1cc(C)n(-c2nc(NCC(C)O)c3c4c(sc3n2)CCCC4)n1 (stereo not drawn) | -0.392%
7 | O=C(Nc1ccc(S(=O)(=O)Nc2cnc3ccccc3n2)cc1)c1cccc(OC(F)F)c1 | 0.539%
8 | CCCc1cc(C(=O)OC)c(NC(=O)CCC(=O)O)s1 | 10.3%
9 | CNC(=S)N(C)/N=C1/C(=O)N(Cc2c(Cl)cccc2Cl)c2ccccc21 | 10.9%
10 | CCOc1ccc(C(=O)NCC(=O)NCC2CCCCC2)cc1OCC | 13.9%
11 | COc1ccc(Cn2cnc3sccc3c2=O)cc1 | 0.544%
12 | CCCOc1ccc(/C=N/NC(=O)c2nnn(-c3nonc3N)c2-c2cccs2)cc1OC | -2.55%
13 | COc1ccc(C(=O)COc2ccccc2C(N)=O)cc1 | 8.47%
14 | CCN1CCN(c2sc(S(C)(=O)=O)nc2S(=O)(=O)c2ccc(Cl)cc2)CC1 | -19.1%
15 | COc1ccc(C(=O)N2CCN(c3ncccn3)CC2)cc1S(=O)(=O)N1CCOCC1 | 11%
16 | CCc1ccc(CN(C(=O)c2cc3ccccc3oc2=O)C2CCS(=O)(=O)C2)cc1 (stereo not drawn) | 3.71%
17 | Oc1c(Cl)cc(Cl)cc1C=Nc1ccc(N2CCOCC2)cc1 | 9.19%
18 | COc1cc(CN2CCN(C(=O)Cc3ccccc3)CC2)cc(OC)c1OC.O=C(O)C(=O)O | 5.81%
19 | CC(OC(=O)c1cccc(S(=O)(=O)Nc2ccccc2F)c1)C(=O)NCc1ccc2c(c1)OCO2 (stereo not drawn) | 6.09%

Row | SMILES | hERG current change (%, negative = inhibition) at 1uM
20 | CNC(=O)COC(=O)CNC(=O)c1cc(Cl)cc([N+](=O)[O-])c1 | 16.6%
21 | O=C(NC1CCCC1)C(NS(=O)(=O)c1ccc(Br)s1)c1ccccc1 (stereo not drawn) | 13.1%
22 | Cc1cccc2cc(CN(CCc3ccccc3)C(=O)N3CCOCC3)c3nnnn3c12 | 12.5%
23 | CC(=O)Nc1ccc2nc(CN3CCC(CO)(CCc4ccccc4)CC3)ccc2c1 | -17.5%
24 | CCOCCOC(=O)C1=C(C)N(C)C(=O)NC1c1cc(Cl)c(O)c(OCC)c1 (stereo not drawn) | 2.72%
25 | CC(C)c1ccc(/C=C/C(=O)NCc2ccc(S(N)(=O)=O)cc2)cc1 | 13%
26 | Cn1c(CC(=O)Nc2ccccc2F)nnc1SCC(=O)Nc1ccccc1Br | 9.15%
27 | O=C(CCC(=O)N1CCCC1)Nc1ccc(Cl)c(Cl)c1 | 9.55%
28 | Cc1nnc(NC(=O)CSc2n[nH]c(-c3ccccc3C)n2)s1 | 1.88%
29 | CN(C)c1ccc(C(=S)Nc2ccccc2)cc1 | 9.74%
30 | O=C(Nc1c2c(nn1-c1ccc(F)cc1)CS(=O)(=O)C2)c1ccc(Br)o1 | 3.78%
31 | Cc1ccc(-c2ccnc3cc(C)nn23)cc1 | 8.81%
32 | CN(CCOc1ccccc1)C(=O)c1cc(S(=O)(=O)N2CCOCC2)ccc1Cl | -10.5%
33 | COc1ccccc1-n1c(SCC(=O)Nc2cccc(C(=O)O)c2)nnc1-c1ccccc1O | 8.32%
34 | CCN(CC)C(=O)CSc1nnc(-c2ccccc2)o1 | 11.1%
35 | Cl.NCCCCCc1nnc(SCc2cccc(Cl)c2)o1 | 0.918%
36 | COc1ccc(NC(=S)N2CCN(C(=O)c3ccco3)CC2)c(OC)c1 | 8.24%
37 | CC1Cc2ccccc2N1C(=O)CNc1cccc(S(=O)(=O)N2CCCC2)c1 (stereo not drawn) | 14.1%
38 | O=C(NCc1ccccc1)C12CC3CC(CC(Cl)(C3)C1)C2 | 7.85%

Row | SMILES | hERG current change (%, negative = inhibition) at 1uM
39 | c1ccc(-c2nc(-c3ccco3)cs2)nc1 | 3.45%
40 | CC(C)=CC(=O)Nc1c(C)cc(C)cc1Cl | 13.2%
41 | O=C(COc1ccc(-c2ccccc2)cc1)N1CCCC1 | -1.68%
42 | Cc1ccc(S(=O)(=O)N2CCOCC2)cc1NC(=O)COC(=O)CNC(=O)c1ccccc1 | 12.8%
43 | CSc1nnc(-c2cc(-c3ccc(C)cc3)nc3ccccc23)o1 | 2.83%
44 | O=C(Oc1cccc2c(O)cccc12)c1ccccc1 | 11.4%
45 | CC1(C)CC(=O)c2cnc(NC(=O)CSC(=S)N3CCCCC3)nc2C1 | -4.01%
46 | COc1ccccc1/C=C(/NC(=O)c1ccc(Cl)cc1Cl)C(=O)O | 16.5%
47 | CCOc1ccc(C(=O)Nc2ccc3c(c2)OCCO3)cc1OC | -3.07%
48 | COc1ccccc1C(=O)/C=C/c1ccc(N2CCCCC2)c([N+](=O)[O-])c1 | 4.86%
49 | Cc1nnc(SCCn2c(Br)nc3c2c(=O)[nH]c(=O)n3C)s1 | 17.2%
50 | Cl.O=C(NC(=S)N1CCN(Cc2ccccc2)CC1)c1ccco1 | 6.12%
51 | COC(=O)c1ccc(NC(=O)C2CC(=O)N(c3cc(C)ccc3C)C2)cc1 (stereo not drawn) | 12.2%
52 | Cc1ccc(C(=O)C2=C(O)C(=O)N(Cc3cccnc3)C2c2ccc(OC(C)C)cc2)o1 (stereo not drawn) | 13.6%
53 | CC(=O)Nc1ccc(CN2CCN(CC(C)C)C(CCO)C2)cc1 (stereo not drawn) | 9.12%
54 | Cc1ccc2nc(C3CCN(C(=O)c4ccco4)CC3)[nH]c2c1.Cl | -6.6%
55 | COc1ccc(/C(C)=N/NS(=O)(=O)c2cc(C)ccc2C)c(OC)c1 | 11.6%
56 | O=C(c1ccc(-c2nc3ccccc3s2)o1)N1CCN(c2ccccc2O)CC1 | 12.4%
57 | COc1ccccc1N1CCN(C(=O)Cn2nnc(-c3cccs3)n2)CC1 | 13%
